# Counter-ions that a name gives are not always drawn. In all, about 2,000 compounds were measured (“fractional viability relative to vehicle”: median about 0.91, lowest 2% from about 0.045 on). The list shows a part of the results.
# System: TYKNU
# Assay: fractional viability relative to vehicle; TYKNU is a high-grade serous ovarian cancer line; higher = less growth inhibition
# Conditions: 72 h
# Procedure, shortened: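 TYKNU control cells or lentiCRISPRv2 knockout derivatives were seeded at 500 cells per well into drug-stamped 384-well plates holding a ~2100-compound library at 2 or 10 μM, in duplicate. Cells were grown at 37 °C in 5% CO2 in RPMI 1640 with 10% FBS, and drug treatment lasted 72 h. Viability was read by Cell Titer Glo luminescence. Duplicate treatment wells were averaged and normalised to duplicate control wells from the same plate position.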
# [1] = 2uM, genotype: DNM1L knockout (sgDNM1L #1)
# [2] = 2uM, genotype: sgCTRLA1 (non-targeting control)
# [3] = 10uM, genotype: DNM1L knockout (sgDNM1L #1)
# [4] = 10uM, genotype: sgCTRLA1 (non-targeting control)
compound,measurement,setting,value
Cc1nnc(C(=O)NC(C)(C)c2nc(C(=O)NCc3ccc(F)cc3)c(O)c(=O)n2C)o1 [Raltegravir (MK-0518)],fractional viability,[1],0.979
same,fractional viability,[2],1.07
same,fractional viability,[3],0.879
same,fractional viability,[4],1.06
C[C@@H]1C[C@H]2[C@@H]3C[C@H](F)C4=CC(=O)C=C[C@]4(C)[C@@]3(F)[C@@H](O)C[C@]2(C)[C@@]1(O)C(=O)CO [Flumethasone],fractional viability,[1],1.3
same,fractional viability,[2],1.08
same,fractional viability,[3],0.819
same,fractional viability,[4],1.02
O=C(NC[C@H]1CN(c2ccc(N3CCOCC3=O)cc2)C(=O)O1)c1ccc(Cl)s1 [Rivaroxaban],fractional viability,[1],1.11
same,fractional viability,[2],1.14
same,fractional viability,[3],0.885
same,fractional viability,[4],1.01
C[C@@H](Oc1ccc2[nH]nc(/C=C/c3cnn(CCO)c3)c2c1)c1c(Cl)cncc1Cl,fractional viability,[1],0.356
same,fractional viability,[2],0.412
same,fractional viability,[3],0.149
same,fractional viability,[4],0.157
C[C@H]1O[C@H](O[C@H]2[C@H](O)[C@@H](O)[C@@H](O[C@H]3[C@H](O)[C@@H](O)C(O)O[C@@H]3CO)O[C@@H]2CO)[C@H](O)[C@@H](O)[C@@H]1N[C@H]1C=C(CO)[C@@H](O)[C@H](O)[C@H]1O (some centres not stated) [Acarbose],fractional viability,[1],0.938
same,fractional viability,[2],1.17
same,fractional viability,[3],0.953
same,fractional viability,[4],1.22
CNC1CCCN(c2c(F)cc3c(=O)c(C(=O)O)cn(C4CC4)c3c2OC)C1 (configuration not stated) [Balofloxacin],fractional viability,[1],0.977
same,fractional viability,[2],1.05
same,fractional viability,[3],0.965
same,fractional viability,[4],1.01
CC[C@H]1[C@@H](O)[C@@H]2[C@H](CC[C@]3(C)[C@@H]([C@H](C)CCC(=O)O)CC[C@@H]23)[C@@]2(C)CC[C@@H](O)C[C@@H]12 [Obeticholic Acid],fractional viability,[1],0.846
same,fractional viability,[2],0.891
same,fractional viability,[3],0.952
same,fractional viability,[4],0.807
CN1CCC(=C2c3ccccc3C=Cc3ccccc32)CC1 [Cyproheptadine HCl],fractional viability,[1],0.982
same,fractional viability,[2],1.06
same,fractional viability,[3],0.717
same,fractional viability,[4],0.943
N=C(N)NC(=N)NCCc1ccccc1 [Phenformin HCl],fractional viability,[1],1.01
same,fractional viability,[2],1.24
same,fractional viability,[3],0.769
same,fractional viability,[4],0.947
CO[C@H]1/C=C/O[C@@]2(C)Oc3c(C)c(O)c4c(O)c(c(/C=N/N5CCN(C6CCCC6)CC5)c(O)c4c3C2=O)NC(=O)/C(C)=C\C=C\[C@H](C)[C@H](O)[C@@H](C)[C@@H](O)[C@@H](C)[C@H](OC(C)=O)[C@@H]1C [Rifapentine],fractional viability,[1],0.837
same,fractional viability,[2],1.01
same,fractional viability,[3],0.453
same,fractional viability,[4],0.622
COc1cccc2c1c(O)c(C(=O)N(C)c1ccc(C(F)(F)F)cc1)c(=O)n2C [Tasquinimod],fractional viability,[1],0.708
same,fractional viability,[2],0.952
same,fractional viability,[3],0.713
same,fractional viability,[4],0.752
CCCc1cc(C(N)=S)ccn1 [Protionamide],fractional viability,[1],1.03
same,fractional viability,[2],1.11
same,fractional viability,[3],0.93
same,fractional viability,[4],1.16
C#Cc1cccc(Nc2ncnc3cc(OC)c(OCCCCCCC(=O)NO)cc23)c1,fractional viability,[1],0.185
same,fractional viability,[2],0.281
same,fractional viability,[3],0.0985
same,fractional viability,[4],0.0936

# Source: the supplement of paper PMC5919970
